US20260226189A1 (PHILOGEN S P A, published 2026)

Target: T1, human CEA (N-terminal domain) recombinant fragment containing a C-terminal 6xHis tag and a N-terminal BirA … (human, site specifically biotinylated using BirA (E. coli biotin ligase) at the BirA target sequence)
T1 construct: Expressed in CHO-S cells and immobilised on a streptavidin chip for all BIAcore runs; also called biotinylated CEA; human CEA N-terminal fragment
T1 chain: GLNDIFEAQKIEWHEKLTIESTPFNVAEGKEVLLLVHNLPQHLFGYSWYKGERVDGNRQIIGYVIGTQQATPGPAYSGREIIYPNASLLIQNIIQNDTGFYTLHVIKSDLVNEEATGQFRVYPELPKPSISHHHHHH
Test: SPR (BIAcore X100), monomeric scFv over biotinylated CEA N-terminal domain on streptavidin chip

B1: G9 antibody in scFv format (scFv)
scFv: [about 100 residues omitted here]LTYARFDYWGQGTLVTVSSGGGGSGGGGSGGGGEIVLTQSPGTLSLSPGERATLSCRASQSVSSSYLAWYQQKPGQAPRLLIYGASSRATGIPDRFSGSGSGTDFTLTISRLEPEDFAVYYCQQSGRVPWTFGQGTKVEIK
notes: also called G9 scFv
Kd: 640 nM
